# The other results are listed elsewhere or left out. At the low end of the ranking, values are background and their order means little.
# Target: MAX:MAX (p21) (UniProt P61244-2)
# Assay: protein-binding microarray (anti-MAX antibody)
# Details: PBM: 15 mM Tris-HCl pH 7.5, 100 mM KCl, 0.075% NP40, 7.5 mM beta-mercaptoethanol, 375 ng/ul BSA, 8 ng/ul poly(dA-dT):(dA-dT), 550 ng complex, 60 min, room …; high values mean tight binding; double strand, one strand shown; sequences stand for … in CCGGC…TTAATAGCTAAGATTACTATATCGACG
row,Sequence,binding signal (log2 normalized fluorescence)
1,TGACGATAAGTA,-0.762
2,TGAGCCGGCGTA,-0.488
3,TGACGGATAGTA,-0.838
4,TGAAGTTACGTA,-0.683
5,TGACCCGAAGTA,-0.27
6,TGACAAATAGTA,-0.62
7,TGAACACAAGTA,0.941
8,TTACGCGTGGTC,3.19
9,TGACTGCATGTA,1.75
10,GGAGACGATGTT,-0.341
11,CAAGTTACTAAA,-0.748
12,TGAATAGCGGTA,-1.04
13,TAACGGGTGGTA,1.04
14,TGATTTTTAGTA,-1.59
15,TGACTCCATGTA,0.264
16,TGAAATTGGGTA,-1.15
17,TGATCTCGAGTA,-0.182
18,TGACACTTGGAA,0.118
19,TGAAAGCGTGTA,2.69
20,TGACCCACTGTA,0.127
21,TGACTGTACGTA,-0.112
22,TGATCTAGCGTA,-0.952
23,TGATATGAAGTA,-0.876

row,Sequence,binding signal (log2 normalized fluorescence)
1,TGATACCAAGTA,-0.868
2,TGAGGCAGGGTA,-0.45
3,TGATAGTATGTA,-0.223
4,TGACACCTGCTA,2.29
5,TGACACCTGGTA,2.01
6,TGACTCGTGGCA,3.22
7,TGACCGCCTGTA,1.42
8,TGATCACCAGTA,0.0178
9,TGACTACGTGTA,0.857
10,TGATGCGGAGTA,-0.473
11,TGATCCCCTGTA,-0.408
12,TGAACCCGGGTA,-0.494
13,TGAGGTCGAGTA,-1.1
14,TGAGTTTAAGTA,-1.2
15,TGAGCCGACGTA,-0.798
16,TGATTCCACGTA,0.0937
17,TGAACTTATGTA,-0.0804
18,TGAGATTCAGTA,-1.26
19,TGAGGTATGGTA,0.477
20,TGATGCGTTGTA,0.14
21,TGATGTGTTGTA,0.284
22,TGACATTTCGTA,-0.398
23,TGACACTACGTA,-0.11

row,Sequence,binding signal (log2 normalized fluorescence)
1,TGAACCATAGTA,-0.481
2,TGAAGTGGTGTA,-0.188
3,TGAGCGGTCGTA,-0.858
4,TGAGAGCCCGTA,-0.738
5,TGATTTGCGGTA,-0.786
6,CGACACGTGGAA,3.32
7,TGAGACGTGCTA,1.27
8,TGAAAACAAGTA,-0.566
9,TGAATTAATGTA,-0.316
10,TGAGAATGCGTA,0.19
11,TCCCACGTGGTA,3.4
12,TGAGCAAGAGTA,-0.65
13,TGATACAGCGTA,-0.85
14,TGACACATAGTA,0.475
15,TGACACACCGTA,1.15
16,TGAGTTGCCGTA,-0.919
17,TGAAGAGGGGTA,0.0222
18,TGAATGTAAGTA,0.15
19,TGATTGACCGTA,-0.705
20,TTTCACGAGGTA,2.88
21,TGATCGTATGTA,-0.0281
22,TGAGTCTACGTA,-1.08
23,TGACTGCTGGTA,0.0201

row,Sequence,binding signal (log2 normalized fluorescence)
1,GCTCACGTGGTA,3.34
2,TGAGAAGTGGTA,-0.662
3,TGAGTCTCAGTA,-0.907
4,TGAAGTTTTGTA,-1.16
5,TGATTTACCGTA,-0.871
6,TGATAATCCGTA,-1.37
7,TGATACCGTGTA,0.507
8,TGAGGAGGCGTA,-0.734
9,TGAATGGCAGTA,0.363
10,TGAAGCTTAGTA,-0.954
11,TGACACTGGGTA,-0.0981
12,TGAGACTGCGTA,-0.509
13,TGAGATCCGGTA,-1.12
14,TGACTAGTGGTA,-0.113
15,TGACACGTTGTT,3.22
16,TGATAATCTGTA,-1
17,TGATGAACGGTA,-0.491
18,TGACATGAGTTA,2.36
19,TGACAATCTGTA,-0.193
20,TGATGAGTTGTA,-0.57
21,TGACGCTTGGTA,-0.49
22,TGAGGTGAGGTA,-0.115
23,CGAGACGTAGTT,-0.866

row,Sequence,binding signal (log2 normalized fluorescence)
1,TGAACGGGGGTA,1.39
2,TGATAGGTAGTA,-0.89
3,TGACACGTTCGA,2.6
4,TGACACGCGTTA,3.04
5,TGACACGTAGTT,1.59
6,GGAAACGGGGTA,0.942
7,TGATACCGAGTA,-0.655
8,TGACAGGGCGTA,-0.314
9,TGACCAGTGGTA,0.0575
10,TGACGCTCGGTA,-0.419
11,TGAACACCTGTA,1.86
12,TGAGGGTGTGTA,0.424
13,TCTTACGTGGTA,0.802
14,TGACTGACTGTA,-0.0276
15,CTACACGTGGTG,3.19
16,TGACGAGCCGTA,-0.379
17,TGAATCTCGGTA,-0.828
18,TGAAGGGCTGTA,-0.27
19,TGACCGCGGGTA,0.294
20,TCACACATCGTA,1.93
21,TGAGGCACAGTA,-0.443
22,TGACACGGACTA,0.955
23,TGACAGGGTGTA,0.438

row,Sequence,binding signal (log2 normalized fluorescence)
1,TGACCGAGAGTA,-0.626
2,TGAGACCTTGTA,-0.67
3,TGAACTTAGGTA,-0.672
4,TGAAGGATTGTA,-0.589
5,TGAGCGCTAGTA,-0.526
6,TGAGGTCAGGTA,-0.448
7,TGAACAAACGTA,-0.445
8,TGAACGCCAGTA,-0.111
9,TGGCACGTGGGA,3.64
10,TGACATGTTGTA,2.16
11,TGACACGGGGAA,2.43
12,TGGCACCCGGTA,0.277
13,TGATAAGCGGTA,-0.893
14,TGACGATCGGTA,-0.405
15,TGATACTCTGTA,-1.13
16,TGACACCTTGTA,0.67
17,TGAACTATCGTA,-0.677
18,TGACTCCTGGTA,0.139
19,TGAGCATCGGTA,-0.509
20,TGATGGCGCGTA,0.661
21,TGATAAGTGGTA,-0.651
22,TGAGTGCTTGTA,0.135
23,TGAAACGGGGTA,0.332

# — PMC5515408
